What was measured:
[1] = test system: Xanthomonas axanopodis pv. punicae; settings: pomegranate plants, after 7 days, dose 1 ml/gm/lit
[2] = test system: Xanthomonas axanopodis pv. punicae; test: In vitro well diffusion technique (Ex. 21); settings: nutrient agar, dose 1 ml/gm/lit., after three days

Row | Molecule | % Disease reduction over Control [1] [%] | Zone of Inhibition (mm) [2] [mm]
1 | COc1cc(CNC(=O)CCCC/C=C/C(C)C)ccc1O [Capsaicin] | 73.91 | 12.25
2 | CC(C)c1ccc(C=O)cc1 [Cuminaldehyde] | 65.22 | 13.75
3 | CC12CCC(CC1=O)C2(C)C (stereo not drawn) [Camphor] | 60.87 | 10.00
4 | Berberine | 66.96 | 10.50
5 | C=CCc1ccc(OC)cc1 [Methyl chavicol] | 64.35 | 11.25
6 | C=CCc1ccc(OC)c(O)c1 [Chavibetol] | 71.30 | 13.25
7 | CCCCC[C@H](O)CC(=O)CCc1ccc(O)c(OC)c1 [Gingerol] | 63.48 | 9.75
8 | O=C(/C=C/C=C/c1ccc2c(c1)OCO2)N1CCCCC1 [Piperine] | 54.78 | 7.00
9 | CC=Cc1cc(OC)c(OC)cc1OC [B-Asarone] |  | 7.50
10 | CCCCCCCCCCCCCCCC(=O)O [Palmitic acid] | 69.57 | 11.50
11 | C=CCc1ccc(O)c(OC)c1 [Eugenol] | 61.74 | 11.00
12 | C/C=C\c1cc(OC)c(OC)cc1OC [β-Asarone] | 59.13 | 
13 | CC1=CCC2CC1C2(C)C (stereo not drawn) [Alpha-pinene] | 50.43 | 7.50
14 | O=c1oc2c(O)c(O)cc3c(=O)oc4c(O)c(O)cc1c4c23 [Ellagic acid] | 58.26 | 10.25
15 | CCCCCCCCCC(C)=O [Embodiment 2-undecanone, 2-undecanone] | 69.57 | 14.57
16 | C=C1C2CCC(C2)C1(C)C (stereo not drawn) [Camphene, camphene] | 53.04 | 9.00
17 | Cc1ccc(C(C)C)c(O)c1 [Thymol] | 64.35 | 10.75
18 | Cc1ccc(C(C)C)cc1 [p-Cymene] | 74.78 | 11.50
19 | CC1=CC(=O)C(C(C)C)=CC1=O [Thymoquinone] | 67.83 | 12.75
20 | CC(C)=CCCC(C)=CC=O [Citral] | 63.48 | 12.50
21 | CC1CCC(C(C)C)C(O)C1 (stereo not drawn) [Menthol] | 75.65 | 12.00
22 | C=C(C)[C@H]1CC=C(C)CC1 [D-limonene] | 62.61 | 11.75
23 | CC12CCC(CC1)C(C)(C)O2 [1,8 cineole] | 53.91 | 8.25
24 | Cc1ccc(C(C)C)cc1O [Carvacrol] | 60.00 | 12.25
25 | Parthenin | 55.65 | 7.00
